The other results are listed elsewhere or left out. The list includes weakly bound sequences.

In the experiment the target is T1, MBP-FoxP3dN (UniProt Q99JB6).
T1 sequence: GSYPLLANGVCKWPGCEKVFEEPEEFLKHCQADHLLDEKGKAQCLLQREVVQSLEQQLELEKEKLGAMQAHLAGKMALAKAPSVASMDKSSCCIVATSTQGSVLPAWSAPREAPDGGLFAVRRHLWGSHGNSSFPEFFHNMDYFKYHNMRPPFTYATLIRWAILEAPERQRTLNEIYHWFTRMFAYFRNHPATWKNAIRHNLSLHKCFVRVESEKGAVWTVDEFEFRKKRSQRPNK
Put plainly: PD-seq (MBP pull-down with sequencing). To be noted: 20 mM Tris-HCl pH 7.5, 100 mM NaCl, 1.5 mM MgCl2, 0.4 uM protein, 0.1 uM dsDNA library, 30 min, room temperature, amylose pull-down; high values mean tight binding; double strand, one strand shown.
Regarding “GATGATTGTTCTCCCAGCTGATGAATTCGCTTCTTCGAGTAAACAAATTTTCCTAATCTTTCTGTTCAAGCGCCATCTAC”, the binding signal (RPM ratio (pull-down/input)) came to 0.73.

Consider “GATGATTGTTCTCCCAGCTGATGAATTTGAACCGTCGAGTAAACAAATTTTCCTAATCTTTCTGTTCAAGCGCCATCTAC”, for which the binding signal (RPM ratio (pull-down/input)) stood at 0.292.

For “GATGATTGTTCTCCCAGCTGATGAATTGGATCGGTCGAGTAAACAAATTTTCCTAATCTTTCTGTTCAAGCGCCATCTAC”, the binding signal (RPM ratio (pull-down/input)) is 0.198.

Turning to “GATGATTGTTCTCCCAGCTGATGAATTAGGGAATTCGAGTAAACAAATTTTCCTAATCTTTCTGTTCAAGCGCCATCTAC”, the binding signal (RPM ratio (pull-down/input)) amounted to 0.853.

Consider “GATGATTGTTCTCCCAGCTGATGAATTCATTAGATCGAGTAAACAAATTTTCCTAATCTTTCTGTTCAAGCGCCATCTAC”, for which the binding signal (RPM ratio (pull-down/input)) was 0.251.

For “GATGATTGTTCTCCCAGCTGATGAATTTCGTATCTCGAGTAAACAAATTTTCCTAATCTTTCTGTTCAAGCGCCATCTAC”, the binding signal (RPM ratio (pull-down/input)) was found to be 3.84.

Regarding “GATGATTGTTCTCCCAGCTGATGAATTCGATATATCGAGTAAACAAATTTTCCTAATCTTTCTGTTCAAGCGCCATCTAC”, the binding signal (RPM ratio (pull-down/input)) was 0.823.

On to “GATGATTGTTCTCCCAGCTGATGAATTATATTAGTCGAGTAAACAAATTTTCCTAATCTTTCTGTTCAAGCGCCATCTAC”, for which the binding signal (RPM ratio (pull-down/input)) is 3.01.

In the case of “GATGATTGTTCTCCCAGCTGATGAATTACCCGGATCGAGTAAACAAATTTTCCTAATCTTTCTGTTCAAGCGCCATCTAC”, the binding signal (RPM ratio (pull-down/input)) amounted to 0.146.

As for “GATGATTGTTCTCCCAGCTGATGAATTCAGGTCCTCGAGTAAACAAATTTTCCTAATCTTTCTGTTCAAGCGCCATCTAC”, the binding signal (RPM ratio (pull-down/input)) was determined as 0.428.

Consider “GATGATTGTTCTCCCAGCTGATGAATTTTATGGTTCGAGTAAACAAATTTTCCTAATCTTTCTGTTCAAGCGCCATCTAC”, for which the binding signal (RPM ratio (pull-down/input)) was determined as 1.56.

On to “GATGATTGTTCTCCCAGCTGATGAATTCGAAGAATCGAGTAAACAAATTTTCCTAATCTTTCTGTTCAAGCGCCATCTAC”, for which the binding signal (RPM ratio (pull-down/input)) is 0.179.

On to “GATGATTGTTCTCCCAGCTGATGAATTCCCACGCTCGAGTAAACAAATTTTCCTAATCTTTCTGTTCAAGCGCCATCTAC”, for which the binding signal (RPM ratio (pull-down/input)) came to 0.307.

Consider “GATGATTGTTCTCCCAGCTGATGAATTAGCTCATTCGAGTAAACAAATTTTCCTAATCTTTCTGTTCAAGCGCCATCTAC”, for which the binding signal (RPM ratio (pull-down/input)) came out at 0.355.

On to “GATGATTGTTCTCCCAGCTGATGAATTCTAACCATCGAGTAAACAAATTTTCCTAATCTTTCTGTTCAAGCGCCATCTAC”, for which the binding signal (RPM ratio (pull-down/input)) came to 0.387.

Regarding “GATGATTGTTCTCCCAGCTGATGAATTCATGGACTCGAGTAAACAAATTTTCCTAATCTTTCTGTTCAAGCGCCATCTAC”, the binding signal (RPM ratio (pull-down/input)) is 0.405.

Turning to “GATGATTGTTCTCCCAGCTGATGAATTAGTGTGGTCGAGTAAACAAATTTTCCTAATCTTTCTGTTCAAGCGCCATCTAC”, the binding signal (RPM ratio (pull-down/input)) was 2.28.

In the case of “GATGATTGTTCTCCCAGCTGATGAATTGCTGCTGTCGAGTAAACAAATTTTCCTAATCTTTCTGTTCAAGCGCCATCTAC”, the binding signal (RPM ratio (pull-down/input)) came out at 0.711.

As for “GATGATTGTTCTCCCAGCTGATGAATTCTACTAGTCGAGTAAACAAATTTTCCTAATCTTTCTGTTCAAGCGCCATCTAC”, the binding signal (RPM ratio (pull-down/input)) worked out at 0.345.

With “GATGATTGTTCTCCCAGCTGATGAATTTCCCCCCTCGAGTAAACAAATTTTCCTAATCTTTCTGTTCAAGCGCCATCTAC”, the binding signal (RPM ratio (pull-down/input)) is 0.205.

In the case of “GATGATTGTTCTCCCAGCTGATGAATTATTTTAATCGAGTAAACAAATTTTCCTAATCTTTCTGTTCAAGCGCCATCTAC”, the binding signal (RPM ratio (pull-down/input)) was found to be 0.348.

Regarding “GATGATTGTTCTCCCAGCTGATGAATTGTCGGCGTCGAGTAAACAAATTTTCCTAATCTTTCTGTTCAAGCGCCATCTAC”, the binding signal (RPM ratio (pull-down/input)) is 0.501.

As to “GATGATTGTTCTCCCAGCTGATGAATTATTCACATCGAGTAAACAAATTTTCCTAATCTTTCTGTTCAAGCGCCATCTAC”, the binding signal (RPM ratio (pull-down/input)) was 0.505.

In the case of “GATGATTGTTCTCCCAGCTGATGAATTGCGAGGATCGAGTAAACAAATTTTCCTAATCTTTCTGTTCAAGCGCCATCTAC”, the binding signal (RPM ratio (pull-down/input)) was found to be 0.538.

As for “GATGATTGTTCTCCCAGCTGATGAATTTCGACATTCGAGTAAACAAATTTTCCTAATCTTTCTGTTCAAGCGCCATCTAC”, the binding signal (RPM ratio (pull-down/input)) was found to be 1.41.

With “GATGATTGTTCTCCCAGCTGATGAATTATAGGTCTCGAGTAAACAAATTTTCCTAATCTTTCTGTTCAAGCGCCATCTAC”, the binding signal (RPM ratio (pull-down/input)) was determined as 0.458.

As for “GATGATTGTTCTCCCAGCTGATGAATTAGCATGTTCGAGTAAACAAATTTTCCTAATCTTTCTGTTCAAGCGCCATCTAC”, the binding signal (RPM ratio (pull-down/input)) came out at 1.71.

Regarding “GATGATTGTTCTCCCAGCTGATGAATTTCCAAAATCGAGTAAACAAATTTTCCTAATCTTTCTGTTCAAGCGCCATCTAC”, the binding signal (RPM ratio (pull-down/input)) was found to be 0.16.

Regarding “GATGATTGTTCTCCCAGCTGATGAATTTTTAAGATCGAGTAAACAAATTTTCCTAATCTTTCTGTTCAAGCGCCATCTAC”, the binding signal (RPM ratio (pull-down/input)) worked out at 0.181.

Turning to “GATGATTGTTCTCCCAGCTGATGAATTGGAGCACTCGAGTAAACAAATTTTCCTAATCTTTCTGTTCAAGCGCCATCTAC”, the binding signal (RPM ratio (pull-down/input)) was 0.403.

As to “GATGATTGTTCTCCCAGCTGATGAATTCGCACTGTCGAGTAAACAAATTTTCCTAATCTTTCTGTTCAAGCGCCATCTAC”, the binding signal (RPM ratio (pull-down/input)) is 0.491.

“GATGATTGTTCTCCCAGCTGATGAATTGAACCTTTCGAGTAAACAAATTTTCCTAATCTTTCTGTTCAAGCGCCATCTAC”: the binding signal (RPM ratio (pull-down/input)) was found to be 0.324.

Regarding “GATGATTGTTCTCCCAGCTGATGAATTGATAGTGTCGAGTAAACAAATTTTCCTAATCTTTCTGTTCAAGCGCCATCTAC”, the binding signal (RPM ratio (pull-down/input)) was 0.998.

As for “GATGATTGTTCTCCCAGCTGATGAATTTATGGTTTCGAGTAAACAAATTTTCCTAATCTTTCTGTTCAAGCGCCATCTAC”, the binding signal (RPM ratio (pull-down/input)) came out at 2.56.

For “GATGATTGTTCTCCCAGCTGATGAATTGCCTCCTTCGAGTAAACAAATTTTCCTAATCTTTCTGTTCAAGCGCCATCTAC”, the binding signal (RPM ratio (pull-down/input)) turned out to be 1.23.

As for “GATGATTGTTCTCCCAGCTGATGAATTCAGCGCATCGAGTAAACAAATTTTCCTAATCTTTCTGTTCAAGCGCCATCTAC”, the binding signal (RPM ratio (pull-down/input)) turned out to be 1.15.

For “GATGATTGTTCTCCCAGCTGATGAATTTAGGTACTCGAGTAAACAAATTTTCCTAATCTTTCTGTTCAAGCGCCATCTAC”, the binding signal (RPM ratio (pull-down/input)) worked out at 0.893.

As to “GATGATTGTTCTCCCAGCTGATGAATTCTCGGCGTCGAGTAAACAAATTTTCCTAATCTTTCTGTTCAAGCGCCATCTAC”, the binding signal (RPM ratio (pull-down/input)) came out at 0.374.

In the case of “GATGATTGTTCTCCCAGCTGATGAATTAAAGTACTCGAGTAAACAAATTTTCCTAATCTTTCTGTTCAAGCGCCATCTAC”, the binding signal (RPM ratio (pull-down/input)) came out at 0.43.

With “GATGATTGTTCTCCCAGCTGATGAATTGAAAACGTCGAGTAAACAAATTTTCCTAATCTTTCTGTTCAAGCGCCATCTAC”, the binding signal (RPM ratio (pull-down/input)) amounted to 0.286.

For the origin of these results see publication PMC12820563.
